Data as given in the supplement of paper PMC11417369.
This is one part of the list.

System: PfAP2-HC AP2 domain (GST-tagged)
Assay: gcPBM binding intensity (ln(normalized median fluorescence intensity)); higher = stronger DNA binding
Summary of the method: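 In this array assay, P. falciparum DNA-binding domains with a GST tag, expressed in E. coli, were applied for 1 h to primer-extended double-stranded 36-bp intergenic genomic probes and negative controls on an Agilent 4 × 180k array. Bound protein was visualised with Alexa488 anti-GST antibody at 488 nm. Binding intensity is the highest Masliner-normalised natural-log median intensity across replicate spots of either probe orientation.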

Row | Sequence | gcPBM binding intensity (ln)
1 | ATATTGTATTTATGTACACACATTTTTGGAATATGA [CACACA_site4861] | 9.87
2 | TTTTTTCTCTGTGGCTGTACTTTGAAGATATTTTAT [XGTACX_site8243] | 10.2
3 | AAAGGTTCACATTATATAGTTATGTAATATATATGT [CACACA_negctrl_site542] | 9.67
4 | CTCTGTTGTCTTAGTTGTACAATAGAAAAAAATAAT [XGTACX_site7043] | 9.51
5 | TCTTTTAAACAGTACACACACACATCTATATTTATA [CACACA_site6559] | 10.2
6 | ATATATATATATATATGTACATATTGTATTAATTAT [XGTACX_site1919] | 9.82
7 | TTTTCATATTATAGTGCACACAAAAATATATATATG [CACACA_site8929] | 9.68
8 | TAAAATATATATATGTGTACATAACATATAATTTTT [XGTACX_site1725] | 9.57
9 | TTATTTAGTATATTATGTACATACAATGCCTGGGAA [XGTACX_site4578] | 9.57
10 | AGTATAAAAATATATTTACACACTATATATATCGAA [CACACA_site8494] | 9.8
11 | ATATGTTACAGACACACACACACATAAAAAAACAAA [CACACA_site3248] | 11.1
12 | TATTGTTGTTCATGTACACACTATAATAAAAGCAAT [CACACA_site6148] | 9.62
13 | AGGTACTTTTTTAAAACACACATATAACATATACAC [CACACA_site6629] | 9.83
14 | ACCCCCAATACGGAAACACACAAGTTATTTTATCAT [CACACA_site8874] | 10
15 | AATTAGATTTACTGAAGTACTTAATTTATTTTATTA [XGTACX_site3407] | 9.78
16 | AATAATCTATATTGTACACACAAAATGGGAAAAAAA [CACACA_site6969] | 9.99
17 | AAAAAAGGAAAAGATACACACCGTAAATTAAAATTT [CACACA_site5908] | 10.2
18 | GAAGGAATATACAATTGTACTTGGCAAAAAAAAAAA [XGTACX_site1884] | 9.6
19 | ATATATTTATATATTACACACAATATTGTACAGATA [CACACA_site8215] | 9.78
20 | AAATACTTGTCATATTGTACATGTTTGTGATATATA [XGTACX_site3185] | 9.6
21 | GTTAAGAATATATAATGTACTTATTTTAATATAGTA [XGTACX_site6088] | 9.49
22 | TTAAATGAAAAATGGGGTACATATATACAAATATAT [XGTACX_site5931] | 9.66

Row | Sequence | gcPBM binding intensity (ln)
23 | TGTTTATTTTTAAAAAGTACATATATAAAAAATATC [XGTACX_site4902] | 9.28
24 | ATAATTTGGAAACACACACACACACCCACATATATA [CACACA_site2286] | 10.5
25 | TGATTATACGCACGCGCACACACAACCAAAAAAAAA [CACACA_site3537] | 10.2
26 | AAAAAAAAATACTACTGTACTTTTTTTGGACATCTA [XGTACX_site1096] | 9.42
27 | AATTATAATTAATAGAGTACTGAATATATATATATA [XGTACX_site8683] | 9.89
28 | TTCCCTTTTTTTATTTGTACTTATCTTTTAAATAAT [XGTACX_site2497] | 9.89
29 | AGCATTTTTCATTTTGCACACATGTTTTATGTGTAT [CACACA_site3454] | 10
30 | GCTTCTTAGTATACTTTATAAAATATATATTAAATA [XGTACX_negctrl_site57] | 9.58
31 | TAAAATATAATAAAATGTACACGCATGCAATAGAAT [XGTACX_site7434] | 10.5
32 | ATATCGGGTGCATTAACACACATTTATTTGAATAAA [CACACA_site2350] | 9.65
33 | TTTATAAATATATATACACACACATATATATTATAT [CACACA_site8099] | 10.1
34 | ATATATCATAATAGAGGTACACATATTATATATATA [XGTACX_site782] | 9.68
35 | ATATTAAATATAATTTGTACGCATTTTTTTTTTTTT [XGTACX_site1910] | 9.56
36 | ATATACATATATATGGGTACATATATTAATATATAT [XGTACX_site8358] | 9.77
37 | ATTTTGAAAAATAAAAGTACATATAATATATCTACA [XGTACX_site7185] | 9.29
38 | TTAACATATTATAAGTGTACATATTTATAAACAAGA [XGTACX_site8806] | 9.71
39 | TCTGTTAATATTTATACACACATATTTATTTATATA [CACACA_site6658] | 9.86
40 | CACTCCATATTATACACACACACAAATGAAAAAAAT [CACACA_site3019] | 10.8
41 | TTTAGATATATGGTAGTGCATAATAAAAATATAGCC [GTGCAC_site9449] | 9.57
42 | AAAAAAAAAAAAAAGACACACATATATATATATATA [CACACA_site633] | 9.63
43 | AATATTACAAAATATTGTCCGTACAAATTTTTAATA [XGTACX_site8129] | 9.44
44 | GATGATAAAATATGTACACACAGTTTATACATTTTG [CACACA_site4055] | 9.97
